Among the data in the supplement of paper PMC10126150 are switch fluorescence ratio values, retold here.

Sequences with one replicate were seen in a single cluster, so their values are uncertain.
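Also: ATP exposure 15 min at 22 °C before imaging.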

The test system of the series is ATP. Briefly: switch fluorescence ratio, 500 uM ATP over buffer (Cy3 cluster intensity, sum of 5 cycles each) (fold (ratio)); higher = stronger signal-on switching upon ATP binding; sequences stand for … in TCGTCGGCAGCGTCAGATGTGTATAAGAGACAGTTTTTTTTTTTTTTTTTTTTTTTTT…TC. The conditions noted are these: aptamer strand: ATP DNA aptamer (quencher-CACCTGGGGGAGTATTGCGGAGGAAGG + anchor), 100 nM annealed; ATP concentration: 500 uM; one replicate. The method, boiled down:
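After annealing to 100 nM quencher-labelled ATP aptamer, Cy3-labelled switching-strand clusters on a modified Illumina MiSeq flow-cell were imaged in selection buffer. A second image followed after 15 min with 500 uM ATP at 22 °C, and five such buffer/ATP cycles were done, each separated by NaOH stripping and re-annealing. The fluorescence ratio, averaged per switch-domain sequence, is summed target-cycle over summed buffer-cycle Cy3 intensity per cluster, with clusters outside 100-1000 RFU excluded.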
On to TTGCGAATTA, for which the switch fluorescence ratio was 1.02.
In the case of CCTTAGTGAG it was 1.03.
In the case of ATTGAGTACC it was 1.03; in that of TTTATCTGGG, 0.982; in that of CAAATGAGTA, 1.02.
As to CATGGGGAGC, the switch fluorescence ratio was 0.987.
Take GGCGTATGCT: the switch fluorescence ratio was determined as 1.04.
In the case of TGTCGATACA it was 1.05.
In the case of GTGTAATCTG it was 0.968; in that of GGGAACCATA, 0.958.
As to TTCCTTAGG, the switch fluorescence ratio was 1.04.
In the case of GGCTGATAAG it was 0.96; in that of TGGGTTTGAC, 1.04.
In the case of GGTTGTCCGT it was 0.999; in that of CCGGCGATTA, 1.56; in that of CCTATTCTAC, 1.16.
As for ACATGGCTGC, the switch fluorescence ratio was 0.988.
In the case of GACCCCTACC it was 1.48.
In the case of CGGCCAGCGG it was 1; in that of GTGCAAGCTG, 1.02; in that of AGAGCCTACG, 1.07.
In the case of CGGCTTCCGT it was 0.962.
Turning to GTAACAAACT, the switch fluorescence ratio stood at 1.04.
Consider CATGTAAACT, for which the switch fluorescence ratio stood at 1.03.
On to GAGATACCCC, for which the switch fluorescence ratio came out at 1.08.
Turning to ATGGTTCAAG, the switch fluorescence ratio is 0.965.
In the case of GCGCAGGCTG it was 1.03; in that of GCGTAATAAG, 0.987.
Consider ATATCTATGC, for which the switch fluorescence ratio worked out at 1.03.
In the case of TCTTAAAGGC it was 1.05.
In the case of GGCCAACATT it was 0.952; in that of GAAAAACGTT, 1.04; in that of AATGCGGGAC, 1.16.
For GGCAAATAAT, the switch fluorescence ratio was found to be 0.997.
In the case of CCCATAGGAA it was 0.985.
In the case of TGACGGTGCA it was 1; in that of TTCTGGGTG, 1.08.
In the case of TGTTTCTTAG it was 1.02.
TAGGTTCTTG: the switch fluorescence ratio was 0.957.
For the sequence GCTGACTGTG, the switch fluorescence ratio was 1.01.
In the case of GAGCGGCACT it was 1.08; in that of AAAGGTAACA, 1; in that of TCGCGACTCC, 3.16.
For the sequence CGGAGCGGGA, the switch fluorescence ratio was found to be 1.11.
In the case of ATCCTCCATG it was 1.14; in that of GGCCGCTTTG, 1.08; in that of GGCCTTAAAA, 0.929.
In the case of CAGGAGAGGA it was 1.01; in that of TGGGGGTAG, 0.994; in that of TCTTCTTCTT, 0.969.
In the case of AAGCCCAGGA it was 1.14.
On to ATGCTTAGAT, for which the switch fluorescence ratio stood at 0.984.
TATTGCCCCT: the switch fluorescence ratio came out at 0.971.
On to GAAAAAAAGT, for which the switch fluorescence ratio came to 1.02.
In the case of CTGTGACGCC it was 1.05; in that of CAAGTTGCGC, 1; in that of GAAGGGAGCC, 0.979.
In the case of GTACAGCTTG it was 0.95; in that of GCTATAGGCT, 1.03; in that of TAGCTAGGAA, 0.946.
In the case of ACCATTGGCA it was 1.
With ATGACGGCGA, the switch fluorescence ratio is 0.934.
In the case of CGAATTTGCG it was 0.963; in that of AGTTCGTTGC, 0.982; in that of TTTGGCGGTG, 1.05.
In the case of CAGTTAGAAC it was 0.998; in that of AGCACAGAGT, 0.989.
In the case of TCAATAACAA it was 1; in that of TGTTCTCCCC, 1.13.
Take TAAGTTATGA: the switch fluorescence ratio stood at 1.05.
For AGTCGTGAAA, the switch fluorescence ratio was 1.02.
In the case of GGCCTATGGG it was 0.993; in that of TTGGTTCTTT, 0.978; in that of AACACGGGAA, 1.02.
In the case of ACGGAGATGA it was 1.08; in that of GGGTTGCATA, 0.988; in that of CTTTTAATCA, 0.977.
In the case of GACCCTTTTG it was 0.966; in that of ATTTTACCGT, 1.04; in that of CTTCGGATCA, 0.994.
In the case of CGGATAGGT, the switch fluorescence ratio is 0.994.
As to CGTCGAAGCA, the switch fluorescence ratio was 1.06.
Regarding TGTGGTCGTG, the switch fluorescence ratio came out at 0.985.
In the case of GTTTCCAATG it was 1.03; in that of TCGGGCGTAG, 1.03; in that of GGAGGGGGCT, 0.967.
In the case of ATAGTGCCTA it was 1.01.
In the case of ATGTTGCTTT it was 0.958.
Take TGAAGAAGC: the switch fluorescence ratio was 1.07.
Turning to AACGAAGGAG, the switch fluorescence ratio is 0.978.
Turning to CCATATTATT, the switch fluorescence ratio was 0.975.
As for AGAAGATAAA, the switch fluorescence ratio was found to be 1.04.
In the case of CTAATAACTA it was 1.03; in that of AGTGCTAGGT, 0.999; in that of AACATGTTGC, 0.996.
With GGCGTTTGCG, the switch fluorescence ratio worked out at 1.03.
For the sequence TTTCTCGCCA, the switch fluorescence ratio turned out to be 1.06.
Take CGGCTGTTCT: the switch fluorescence ratio is 1.02.
In the case of CTTTCAACGA it was 0.988; in that of GGGCAATACG, 1.81.
As for ACTCTGTCTG, the switch fluorescence ratio worked out at 1.1.
In the case of CGGGCGAGCG it was 0.997; in that of TAGTTCACCG, 1.02.
In the case of CGCACCTAAA it was 1.08; in that of TGGTGCCTGG, 1; in that of GCACCGGTTG, 1.01.
In the case of CACTTTCGCT it was 1.05; in that of ATATAACGGG, 1.03.
CCGTAGGGCC: the switch fluorescence ratio stood at 1.08.
Regarding GCCTTATGAG, the switch fluorescence ratio is 0.983.
In the case of CGATAGTTCT, the switch fluorescence ratio is 0.957.
In the case of GCTCGGCTTG it was 0.988; in that of TACTGAATTC, 1.06.
In the case of TTCTTCTTGT it was 0.988.
In the case of CCAGGACGAC it was 1.18; in that of CAGGTGTTAG, 1.28; in that of CAGGTCTCGT, 0.974.
In the case of TAGGATTTAT, the switch fluorescence ratio was found to be 0.936.
Regarding TTAGAGGGAA, the switch fluorescence ratio came to 0.983.
In the case of ATAAATTTGA it was 0.995.
